Laboratory results taken from PubChem BioAssay AID588855 (National Center for Advancing Translational Sciences (NCATS), 2011).
Values joined by “and” are separate entries in the source; they are usually repeats but may differ in a detail not shown here. Identical values can stand only once. The whole screen tested about 410,000 compounds, of which about 5,000 (1.2%) were called active. The inconclusive results got no clear call from the source; some entries with a clear call stand among them for comparison. Calls follow the shape of the dose curve; as a rule, active = well fitted inhibition curve with a large enough effect; inconclusive = small, poorly fitted or top-dose-only effect; inactive = no such curve, though single readings can be large or run the other way. Potencies beside an inconclusive call are fits to weak or partial responses and may not hold up.

Test: qHTS for Inhibitors of TGF-b; also: nearly all actives have a fitted effect of over 65% in size
Conditions: HepG2 CAGA-GFP TGF-b/SMAD3 reporter, GFP fluorescence, 18 h, TGF-beta stimulated, 500 pg/mL final; series mostly up to 46.1 µM; activity, negative = inhibition: at the top concentration
Outline: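 First, reporter cells (HEPG2 CAGA-GFP) rested 2 h at 37 degrees C. Next, compounds were pinned in and TGF-beta added to 500 pg/mL final. After 18 h, GFP was imaged per cell and summed per well.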
% is scaled to controls: 0 for no effect and ±100 for the full control effect; potency is read from the fitted curve at half-maximal effect; tags tell the direction and shape of the fitted curve.

Compound | Potency | activity, negative = inhibition
CC1CN(S(=O)(=O)c2cccc(-c3cn4ccccc4n3)c2)CC(C)O1 (stereo not drawn) | inconclusive: 10 µM [inhibitor, single point] | –
Cc1cc(C)c(S(=O)(=O)/N=C2/C=C(Sc3ncn[nH]3)C(=O)c3ccccc32)cc1C | active: 0.891 µM | –
CCC(C)C(NC(N)=O)C(=O)Nc1ccc(C)c(Cl)c1 (stereo not drawn) | inconclusive: 5.62 µM [inhibitor, full curve] | –
COC(=O)CNC(c1ccccc1)c1cc(Cl)ccc1NC(=O)c1cccc(Cl)c1 (stereo not drawn) | – | inactive: 4.7%
O=C(CCS(=O)(=O)Cc1ccccc1)Nc1nc2c(s1)CCCC2 | inconclusive: 22.4 µM [inhibitor, single point] | –
COc1ccccc1C(=O)NCCn1cc(SCc2ccccc2Cl)c2ccccc21 | inconclusive: 7.94 µM [inhibitor, partial curve, poor fit] | –
Cc1cccc(-c2nnnn2-c2cccc(C)c2)c1 | inconclusive: 2 µM [inhibitor, single point] | –
COc1cccc(COc2ccccc2C2Nc3ccc(Br)cc3C(=O)N2NC(=O)c2ccncc2)c1 (stereo not drawn) | inconclusive: 0.631 µM [inhibitor, full curve, poor fit] | –
CCn1c(NC(=O)c2nn(C)cc2Br)nc2ccccc21 | inconclusive: 3.16 µM [inhibitor, partial curve, poor fit] | –
COc1cccc(C(=O)Nc2ccc(NC(C)=O)cn2)c1 | inconclusive: 20 µM [inhibitor, single point] | –
CCC(c1nnnn1C(C)(C)CC)N(CCCN1CCOCC1)Cc1cc2cccc(C)c2[nH]c1=O (stereo not drawn) | inconclusive: 35.5 µM [inhibitor, single point] | –
CCOc1ccccc1NC(=O)NCCn1c(=O)oc2ccc(C)cc21 | inconclusive: 1.26 µM [inhibitor, partial curve, poor fit] | –
COc1ccccc1CNS(=O)(=O)c1cc2c3c(c1)CCN3C(=O)CC2 | inconclusive: 0.112 µM [inhibitor, full curve, poor fit] | –
CCc1ccc(C(O)(CNCc2ccccc2)c2ccccc2)cc1 (stereo not drawn) | inconclusive: 12.6 µM [inhibitor, partial curve, poor fit] | –
COc1ccc(-c2nc(-c3ccccc3)c(-c3ccc(O)cc3)[nH]2)cc1 | inconclusive: 35.5 µM [inhibitor, single point] | –
CC1CCc2[nH]c3ccc(C(=O)N(C)CC(=O)Nc4ccccc4C(F)(F)F)cc3c2C1 (stereo not drawn) | inconclusive: 35.5 µM [inhibitor, single point] | –
CCOC(Cn1c(-c2ccc(OC)cc2)nc2ccccc21)OCC | – | inactive: -0.305%
CCCCC(=O)NC(c1ccc(Cl)cc1)c1ccc2cccnc2c1O (stereo not drawn) | inconclusive: 12.6 µM [inhibitor, partial curve, poor fit] | –
Cc1ccc(CNC(=O)c2ccc(-n3cnc4cccnc43)cc2)cc1 | – | inactive: 14.1%
CCOC(=O)C1=CNS(=O)(=O)NC1CCc1ccccc1 (stereo not drawn) | – | inactive: 8.5%
OCCNc1nc(Nc2ccc(O)cc2)nc2ccccc12 | inconclusive: 12.6 µM [inhibitor, single point] | –
CN(C)c1ccnc2sc(C(=O)c3ccccc3)c(N)c12 | inconclusive: 10 µM [inhibitor, partial curve, poor fit] | –
CCCCCCc1cc2cc(S(=O)(=O)c3ccc(Cl)cc3)c(=O)oc2cc1O | active: 11.2 µM | –

Compound | Potency | activity, negative = inhibition
Cn1nc(SCc2ccccc2)c(=O)n(C(c2ccccc2)c2ccccc2)c1=O | inconclusive: 35.5 µM [inhibitor, single point] | –
Cc1cccc(N2CC(C)Cn3c2nc2c3c(=O)n(CC(=O)OCc3ccccc3)c(=O)n2C)c1 (stereo not drawn) | inconclusive: 8.91 µM [inhibitor, partial curve, poor fit] | –
NC(=O)c1cc(-c2ccccc2)nc(N2CCCCCC2)n1 | inconclusive: 11.2 µM [inhibitor, single point] | –
CN1C(=O)[C@H]2[C@@H](/C=C/c3ccccc3)N3C(=O)CN(Cc4ccccn4)C(=O)[C@@]3(C)[C@H]2C1=O | inconclusive: 22.4 µM [inhibitor, single point] | –
O=C(CSc1nc2ccc([N+](=O)[O-])cc2[nH]1)NC1CCCCCC1 | inconclusive: 35.5 µM [inhibitor, single point] | –
COc1cccc(NC(=O)c2ccc(NCCCN3CC(C)CC(C)C3)c([N+](=O)[O-])c2)c1 (stereo not drawn) | – | inactive: -18.5%
COc1ccc(-c2nc3ccc(Br)cn3c2Cc2cccc(Cl)c2)cc1OC | active: 12.6 µM | –
O=C(CN(C(=O)c1ccc(Cl)cc1)C1CCCCC1)Nc1ccc(Cl)c([N+](=O)[O-])c1 | inconclusive: 22.4 µM [inhibitor, single point] | –
CCOC(=O)C1(Cc2cccc(OC)c2)CCN(Cc2ccccc2OC)CC1 | – | inactive: -0.646%
CCCCc1ccccc1NC(=S)NC1CCCC1 | inconclusive: 35.5 µM [inhibitor, single point] | –
Cc1ccc(C)c(C(O)c2ncc(-c3ccc4ccccc4c3)[nH]2)c1 (stereo not drawn) | – | inactive: -7.48%
COc1ccc(-n2c(NCCN(C)C)nc3sc4c(c3c2=O)CCCCC4)cc1 | – | inactive: 4.04%
CC(N)c1csc(Nc2ccc(C(=O)NCCO)cc2)n1 (stereo not drawn) | inconclusive: 6.31 µM [inhibitor, single point] | –
Cc1ccc(C(=O)N2CCc3ccccc32)cc1C | – | inactive: -2.63%
CCOC(=O)Cn1nnnc1CN(Cc1ccccc1)Cc1cc2cc(CC)ccc2[nH]c1=O | inconclusive: 35.5 µM [inhibitor, single point] | –
C=CCOc1ccc2nc(NC(=O)OC)[nH]c2c1 | – | inactive: -0.871%
COc1cc(/C=C2\SC(=N)N(c3ccc(F)cc3)C2=O)ccc1O | – | inactive: 9.06%
C=CCn1cccc(C(=O)Nc2ccc(C)c(Cl)c2)c1=O | inconclusive: 6.31 µM [inhibitor, single point] | –
CC1Cc2cc(S(=O)(=O)NCc3ccccc3Cl)ccc2N1C(=O)C1CCC1 (stereo not drawn) | inconclusive: 15.8 µM [inhibitor, single point] | –
Fc1cccc(NC(=S)NC2CCCCCCC2)c1 | inconclusive: 35.5 µM [inhibitor, single point] | –
COCCc1ncc(CN2CCCC(C(=O)Nc3cccc(-c4cccc(C)c4)c3)C2)cn1 (stereo not drawn) | – | inactive: -14.6%
Cc1cccc(C(=O)N2CCC(=O)N(C(COCc3ccc(Cl)cc3)Cc3ccccc3)CC2)c1 (stereo not drawn) | inconclusive: 12.6 µM [inhibitor, partial curve, poor fit] | –
CCN(CC)c1ccc(/C=C/c2ccncc2)cc1 | – | inactive: 87.6%

Compound | Potency | activity, negative = inhibition
COc1ccc(CCn2c(=O)[nH]c3cc(C(=O)N4CCN(c5ccccn5)CC4)ccc3c2=O)cc1OC | inconclusive: 25.1 µM [inhibitor, single point] | –
CCN(C(=O)c1cc2c(s1)-c1ccccc1OC2)c1cc(Cl)ccc1OC | active: 8.91 µM | –
COc1cc(OC)cc(-c2ncc3ccccn23)c1 | inconclusive: 0.891 µM [inhibitor, full curve, poor fit] | –
O=C(CN1C(=O)/C(=C/c2cccc(Cl)c2)SC1=S)NC1C=CS(=O)(=O)C1 (stereo not drawn) | inconclusive: 35.5 µM [inhibitor, single point] | –
O=C(Nc1nc2ccccc2n1Cc1ccc(Cl)cc1)c1ccco1 | inconclusive: 6.31 µM [inhibitor, single point] | –
O=C(NCCc1c[nH]c2ccccc12)c1ccc([N+](=O)[O-])o1 | inconclusive: 14.1 µM [inhibitor, partial curve, poor fit] | –
CN(C)c1ccc(C=Cc2ccnc3ccccc23)cc1N | inconclusive: 20 µM [inhibitor, partial curve, poor fit] | –
CC(C)CN1CCC(=O)N([C@H](COc2ccccc2)c2ccccc2)CC1 | inconclusive: 10 µM [inhibitor, partial curve, poor fit] and inconclusive: 5.01 µM [inhibitor, single point] | –
CCc1ccc(-c2nc(CS(=O)CC(=O)NCCN3CCCCCC3)c(C)o2)cc1 (stereo not drawn) | – | inactive: -25.2%
OC(COCC(F)(F)C(F)(F)C(F)(F)C(F)F)Cn1c2ccccc2c2ccccc21 (stereo not drawn) | inconclusive: 25.1 µM [inhibitor, single point] | –
O=C(N/N=C/C1CC2C=CC1C2)c1ccccc1O (stereo not drawn) | – | inactive: -13.5%
O=C1C=CCC(/C=C/c2ccccc2)O1 (stereo not drawn) | inconclusive: 25.1 µM [inhibitor, single point] | –
CC(C)(C)c1ccc(C(=O)N2CCC(C(=O)c3ccccc3)CC2)cc1 | inconclusive: 35.5 µM [inhibitor, single point] | –
CC(C)n1c(=S)[nH]c2scc(-c3cccs3)c2c1=O | inconclusive: 10 µM [inhibitor, partial curve] | –
Nc1cccc2nsnc12 | – | inactive: 11.5%
N#Cc1ccc(CSc2ccccn2)c(Cl)c1 | – | inactive: -4.03%
Cc1cccc(NC(=O)c2ccc(COc3ccccc3[N+](=O)[O-])o2)n1 | inconclusive: 10 µM [inhibitor, partial curve] | –
Cc1ccc(C)c(NC(=O)COc2coc(CN3CCc4ccccc43)cc2=O)c1 | inconclusive: 35.5 µM [inhibitor, single point] | –
COc1ccccc1NC(=O)Cc1c(C(=O)O)[nH]c2ccc(Cl)cc12 | inconclusive: 0.112 µM [inhibitor, full curve, poor fit] | –
Cn1c(-c2ccc3ccccc3n2)[n+](C)c2ccccc21 | inconclusive: 35.5 µM [inhibitor, single point] | –
Cc1cccc(NC(=O)CSc2nc3ccc(NC(=O)c4ccco4)cc3s2)c1 | – | inactive: -28.6%
CCCc1cc(=O)[nH]c(SCC(=O)c2cc(C)n(C(C)COC)c2C)n1 (stereo not drawn) | inconclusive: 14.1 µM [inhibitor, single point] | –
